Data as given in the supplement of paper PMC11417369.
The list shows a part of the results.

system: PfAP2-HC AP2 domain (GST-tagged); assay: gcPBM binding intensity (ln(normalized median fluorescence intensity)); higher = stronger DNA binding
Summary of the method: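 Plasmodium falciparum DNA-binding domains carrying a GST tag were expressed in E. coli and applied for 1 h, at about 25 μg on average, to an Agilent 4 × 180k array. The array held primer-extended double-stranded 36-bp intergenic genomic probes together with negative controls, and binding took place in 1× PBS with 1% milk, 0.2 mg/ml BSA, 0.5% salmon testes DNA and 0.03% Triton X-100. An Alexa488 anti-GST antibody detected bound protein, and the array was scanned at 488 nm. Binding intensity is taken as the highest Masliner-normalised natural-log median intensity across replicate spots of either probe orientation.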

Sequence	gcPBM binding intensity (ln)
AAAGAAAATTAAAAAGAACACACAAATATATATATA [CACACA_site9196]	9.9
ATTTATATATATTTATGTACGTATTAATTTTTTTTT [XGTACX_site3877]	9.77
AATGAATCCTTATATACACACATTATTATAGTATAG [CACACA_site7454]	9.81
ATTATTTGTAATATAACACACACAAAAAAAGACTCG [CACACA_site8487]	10.1
TCTTTATCCTTTCTCTTTTTATTAATTATAATATTC [TGCATGCA_negctrl_site584]	9.68
ATTATACCGTATTTTGCATGTAGTATTTTCATTTTA [TGCATGCA_site1021]	9.81
ATTAATTATGTATTTCAACAAAGAAGTGTTATATAT [GTGCAC_negctrl_site215]	9.59
ATATATACCTAAGACACACACATATATATATATATA [CACACA_site764]	10.5
AAGGAAAATATTAACTGTACATATAAAATATATATA [XGTACX_site5310]	9.66
AAATGTACAGGACGCACACACATATATATATATATA [CACACA_site3674]	9.97
TATCATTTATATATGTGTACTTATTTATTTATTTAT [XGTACX_site7961]	9.81
AAATGAATTTAACAATGTACACATATATTATAAATA [XGTACX_site1449]	9.59
ATATATATATGTATATGTACTCATTCTTCTGTGTTT [XGTACX_site5014]	9.84
ATATACATTCTATATACATGCATACTTCATTTTGTG [TGCATGCA_site966]	9.79
TAAGTCAAAACTTTTTTTTCTAAATTTCCATAATTA [GTGCAC_negctrl_site29]	9.28
TACATAATAATAAGGCGTACATAAAAATTAAAAATT [XGTACX_site8769]	9.65
AAAACGATTTTTTGCACACACATAATAAGCAGAACA [CACACA_site3871]	10
TATCTACTTAAATAAAATAAAAATAATAAATAAAAA [TGCATGCA_negctrl_site312]	9.5
ATAAAACAAAGACACACACACATACACAAAAAAAAA [CACACA_site7752]	10.5

Sequence	gcPBM binding intensity (ln)
AATAATCATGATCATAGTACGTATGAATACAAAAAA [XGTACX_site265]	9.76
ATGTATAATATTTTCACACACAAGAAAAAAGAAAAG [CACACA_site3591]	10
ACATTATGTCATAAATGTACACATACATATACATAC [XGTACX_site8998]	9.74
TTTTATTTATTCCTACTTTTTTATTTATTTATTTAA [XGTACX_negctrl_site415]	9.55
CGTATGTATATATATATACACACTTCTGTGATACGA [CACACA_site1949]	9.67
GGTATATAAAAATATTGTACTTAAAAAAATATGTAT [XGTACX_site6253]	9.56
TATTTCACTTTTTGTCTGCACTAAAATTTTATGGTA	9.71
TAGATACATAAACACACACACACATACATATATACA [CACACA_site9139]	10.6
AAAAAAAAAAAAAACACACACATATATATAATATAT [CACACA_site3172]	10.8
TTTTGACTAATATAATATGTTAAGAATTAATAAATA [XGTACX_negctrl_site35]	8.9
AAGTATAGTCTTACATATATATATATATATATATAT [GTGCAC_negctrl_site280]	9.89
CAAAAAGATAAGGTGTGTACGTATTATAATTTTAAA [XGTACX_site531]	9.78
ATTTAATTTTCCAAATGTACTTATATTTTTATGAAA [XGTACX_site6144]	9.38
TGAAATGATCTTTAGTTGCACTTAAAAATATATATA	9.43
GTAATATTAATATAATGTACAAAATGAAACATATAT [XGTACX_site6219]	9.78
CAGTTTAATTTACATAGTACATAATATTTTAATTTT [XGTACX_site1793]	9.65
ACAATATTATTATTTAACCATACACAATTATATGTC [XGTACX_negctrl_site378]	9.69
TAAGAAATAAATAGTACACACATAGACACCCACCGA [CACACA_site1516]	10.4
TTTATTTTTCCATATGCACACACACCGTATATATAA [CACACA_site8293]	10.4

Sequence	gcPBM binding intensity (ln)
AAAACAAACACATTTACACACATAAATAAATCAATT [CACACA_site4122]	10.3
AAAATATAAATATATTTGAACATGGATCAAATGTAA [GTGCAC_negctrl_site626]	9.62
ATACATACATACATACGTACATATGTATATATATAT [XGTACX_site8498]	9.87
TATTCATTCTATAAAACACACAAATATTTTTGTATC [CACACA_site666]	9.67
ATGTTCTATAAATATGAACACACGACATATTATTTA [CACACA_site1799]	9.6
TGTAGTATCAATTTTTGTACATAACACATATGTATA [XGTACX_site613]	9.59
TATATTTAATTACATGAACACACATTATATATTTTT [CACACA_site8969]	9.78
ATATATATATATATATGTACATATTATTCTCATTGT [XGTACX_site6259]	9.69
ATAAAATATAAAAACGCACACAATTATAAGGGTGTA [CACACA_site177]	10.3
ATATATATATATAAAGTGCAAAAATGAAAGTAAGAC [GTGCAC_site9850]	10.5
GTATATGAATGTTCATGTACATAATAAAATATATAA [XGTACX_site250]	9.7
AAATTAAAATATAATACACACATAAAAAAAAAATCA [CACACA_site5918]	9.94
CAATTAAACAATTAAACATGCAAAATGATATAATAA [TGCATGCA_site240]	9.67
AAACAATTTAGACATACACACAAAAATAATATTATA [CACACA_site384]	10.3
CACGAAAATTTGTAGAGTACATATATAATTAATATA [XGTACX_site3808]	9.46
ATATATATATATATATGTACATATTGTATTATTCAC [XGTACX_site6511]	9.76
ATTAAAAAAAAGCTCATCGAAATGTCTTATATAAAT [CACACA_negctrl_site912]	9.62
TATAATAATATTTATTGTACGATTAGATTAATTCAT [XGTACX_site612]	9.47
